# Reference: ChEMBL document CHEMBL4888484, “Replenishing the malaria drug discovery pipeline: Screening and hit evaluation of the MMV Hit Generation Library 1 (HGL1) against asexual blood stage Plasmodium falciparum ,using a nano luciferase reporter read-out” (2022)
# Out of some 150,000 compounds screened, about 540 (0.36%) showed an effect of 50% or more. The list shows a part of the results.
# Tested on: Plasmodium falciparum
# Experiment: Primary screen in NF54 nanoGlo assay, in single point, at 2uM, 72h; a lower Z score goes with more inhibition
# Type: functional, Erythrocyte
# Conditions: timepoint 72 hour
Structure (SMILES),% Inhibition,Z score
C[C@@H](Cc1ccncc1)NC(=O)Cc1c[nH]c(=O)[nH]c1=O,-6%,0.56
O=C(NC[C@H]1Cc2ccccc21)c1ccc(-c2ccco2)[nH]c1=O,-14%,1.63
COc1ccc(CC(=O)N2C3CCC2Cn2c(CC(C)C)nnc2C3)cc1 (stereo unspecified),3%,-0.42
C[C@H]1NC(=O)Cc2ccc(cc2)OCCn2cc(nn2)CNC(=O)[C@H](Cc2ccccc2)NC1=O,-3%,0.55
COc1cccc(-c2ncc(CNC(=O)CN3C(=O)CNC3=O)s2)c1,9%,-0.87
O=C(CCC(=O)c1ccccc1)Nc1ccc2c(c1)CCC2,3%,-0.26
Cc1ncc(C(=O)NCCc2c(C)n3c4c(cccc24)CCC3)c(C)n1,-16%,1.6
C[C@H]1c2ccc(Cl)n2CCN1CCC(=O)N1CCN(C)CC1,-1%,0.11
c1ccc2c(c1)CC(NCCc1nc(C3CC3)no1)C2,-18%,1.79
CC(C)C[C@H]1C(=O)NCCN1c1ncncc1Br,-11%,1.01
CCCNc1ccc(C#N)cc1NC(=O)CC1(O)CCCC1,-9%,1.19
CS(=O)(=O)N(C1CCOCC1)C1CN(S(=O)(=O)c2cccc3nsnc23)C1,-6%,1.1
O=C(NCc1ccccc1CN1CCOCC1)Nc1cccnc1,-4%,0.46
CNC(=O)c1nsc(C(=O)N2CCN(c3cccc(Cl)c3)CC2)c1N,-14%,1.58
O=S(=O)(Nc1ccc(F)cc1OCCC(F)(F)F)C1CC1,-11%,1.07
Cc1cc(-n2cnnc2Cc2ccncc2)n(C)n1,-16%,2.95
CC(C)c1ccc(S(=O)(=O)N(CCCN2CCCC2=O)CC(=O)N2CCNCC2)cc1,-8%,0.78
COc1ccccc1-c1ccnc(-n2ncc(C(=O)NCC3(N4CCOCC4)CCCCC3)c2C)n1,-6%,0.86
CC(=O)N1CCN(C(=O)[C@@H]2CC3(CN(Cc4ccccc4)C3)CN2C)CC1,-10%,1.18
CN(C)[C@H]1CCCCN(Cc2ccccc2OCC(=O)N2CCCCC2)C1,-6%,1.27
CCC[C@@H](CNc1ncc(C)c(N(C)C)n1)N(C)C,1%,-0.11
Cc1noc(C)c1S(=O)(=O)NCc1ccc(-c2ccoc2)cc1,-1%,0.1
COc1ccccc1OCC(=O)Nc1nc(-c2ccc(C)o2)ns1,-11%,1.38
Cc1cccc(C)c1[C@H](C)NCC(=O)Nc1cccnn1,-6%,1.07
CC1CCN([C@@H](CNC(=O)c2cccc(C(=O)O)c2)c2cccs2)CC1,-7%,0.95
CC[C@H]1COCCN1C(=O)c1n[nH]c2c1CN(C)CC2,-3%,0.48
CCc1cnc(C)nc1N1C[C@@H]2OC(=O)N(CCCN3CCOCC3)[C@@H]2C1,-18%,3.15

Structure (SMILES),% Inhibition,Z score
CCCN1CC[C@@H]2N(C(=O)c3ccc4c(c3)CCCN4)CCC[C@@]2(CO)C1,-12%,1.11
CC(C)Cc1cc(CNC(=O)Cc2cccnc2)on1,-23%,2.18
COc1ccc2cc1Oc1cccc(c1)CO[C@H]1CCN(C(=O)c3ccc(CO)cc3)C[C@H]1NC(=O)CC2,-7%,1.25
O=C1NCCN1CCn1ccnc1-c1cccc2nonc12,-8%,1.16
O=C1CN(C(=O)CN2CC3(CCCC3)c3cc(Br)ccc32)CCN1,2%,-0.39
CCN(CC)c1ccc(NC(=O)[C@@H]2CCCO2)cn1,5%,-0.69
C/C(=C\c1ccco1)[C@@H]1CC(=O)Nc2cc(N3CCCC3)c(C(N)=O)cc21,-11%,1.45
Cc1ccc(-c2nc(C3CCCC3)n(CCCO)n2)o1,-27%,3.4
c1cnc(N2C[C@H]3CCC[C@@H](C3)C2)nc1,-10%,1.33
COc1cc(N2C[C@@H](C(=O)N3CC(=O)Nc4ccccc43)CC2=O)cc(OC)c1OC,-6%,0.89
CCc1ccc(-c2cc(C(=O)NCc3nnn[nH]3)[nH]n2)cc1,-19%,1.67
CN(C)C(=O)Cn1cnc(NS(=O)(=O)c2ccc3c(c2)CCCC3)n1,-9%,1.36
CC1(C)CC[C@H](NC(=O)CCN2C(=O)CCC2=O)c2ccccc21,-8%,0.69
C[C@H]1CCN(c2cc(C(=O)N3CC(=O)Nc4ccccc43)ccn2)C1,-5%,0.91
O=C(NC1CCN(CC2=CCCCC2)CC1)c1ncccc1F,1%,-0.1
Cc1ccc2c(c1C)OC[C@@H]2NC(=O)CCc1ccccc1C(=O)O,-18%,1.82
Cc1cc(Br)cnc1NC(=O)C1C[C@@H]2CC(=O)[C@H]1C2 (stereo partly specified),-5%,0.58
O=C1COc2ccc(S(=O)(=O)N3CCC[C@H](C(=O)N4CCc5ccccc5C4)C3)cc2N1,3%,-0.49
Cc1nc(CN2CCC[C@H]2C(=O)O)sc1C,7%,-0.96
CCc1cc(N2CCC(N(C)Cc3noc(C)n3)CC2)nc(N(C)C)n1,1%,-0.06
CC(=O)N(Cc1nn(C)c2c1CN(S(=O)(=O)c1cc(C)ccc1C)CC2)c1ccccc1,-3%,0.51
Cc1ccc(OCCCC(=O)N2CCC[C@@H]2CN)cc1C,-21%,2.46
CC(C)CS(=O)(=O)C1CN(C(=O)Cn2nnc3ccccc32)C1,-15%,1.94
CCn1nccc1C(=O)N1CCC2(CC1)N(Cc1cccc(F)c1)C(=O)C[S@+]2[O-],4%,-0.79
Cc1ccc(C(=O)c2oc3ccccc3c2NC(=O)c2c(C)noc2-c2ccc(Cl)cc2)cc1F,-3%,0.42
CCc1nc(CNC(=O)c2ccc(C(F)F)c(F)c2)co1,9%,-1.6
